In the supplement of paper PMC4166925:
± gives the standard deviation of the averaged measurements. The full ranking holds about 33,000 sequences; the median of “E-score (dimensionless, -0.5 to 0.5)” is about -0.046, and the highest 2% start at about 0.36. Some of the results follow.

Tested on: T1, SpTbr T-box DNA-binding domain (GST fusion)
T1 sequence: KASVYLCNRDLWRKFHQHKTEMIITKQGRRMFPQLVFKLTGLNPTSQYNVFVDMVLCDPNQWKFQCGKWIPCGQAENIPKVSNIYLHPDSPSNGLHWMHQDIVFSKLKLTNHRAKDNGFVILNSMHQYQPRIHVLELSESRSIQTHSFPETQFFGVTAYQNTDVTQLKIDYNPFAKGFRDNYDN
Assay: PBM E-score of 8-mer (E-score (dimensionless, -0.5 to 0.5)); Tbr is Tbrain of the sea star Patiria miniata (Pm) or the sea urchin Strongylocentrotus purpuratus (Sp); higher = stronger binding preference; most listed sequences are background and not binding sites
Settings: the construct has about 5 more residues each side
In short: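 Each ungapped 8-mer received an enrichment E-score from the Universal PBM Analysis Suite, averaged over duplicate arrays. The proteins were Tbr T-box DNA-binding domains, covering the whole T-box plus about five flanking residues, fused to GST and expressed in BL21 E. coli at 20 °C before glutathione affinity purification. Universal Agilent oligonucleotide arrays were made double-stranded by primer extension and incubated with 200 nM protein in PBS (pH 7.5). The arrays were then scanned and quantified, and every 8-mer was scored from probe intensities.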

Row | Sequence | PBM E-score of 8-mer
1 | ACCGGCGT | 0.111 ± 0.011
2 | TCGCTACA | -0.0552 ± 0.054
3 | ATGAATGC | -0.0436 ± 0.072
4 | ACATAACG | 0.225 ± 0.018
5 | CCCCGTGC | -0.228 ± 0.017
6 | CCTTTATA | -0.268 ± 0.046
7 | TACGACAA | 0.0762 ± 0.058
8 | CGCGTACC | 0.151 ± 0.015
9 | ACCACTCC | 0.018 ± 0.099
10 | AGAAGATG | -0.133 ± 0.0033
11 | ACAGGTAT | 0.0728 ± 0.024
12 | GTGCGAAC | 0.4783 ± 0.00073
13 | AGCCTTTA | -0.0795 ± 0.0029
14 | ATCGCGGA | 0.151 ± 0.038
15 | CTACAGTC | -0.0644 ± 0.057
16 | AGATCCGG | -0.16 ± 0.051
17 | CCATGTTC | -0.0808 ± 0.053
18 | AAAAGAAT | -0.0109 ± 0.051
19 | GACGCGAA | 0.138 ± 0.006
20 | ACGCACGT | 0.102 ± 0.062
21 | ACGATAGA | -0.19 ± 0.054
22 | CTGCAGTA | 0.0389 ± 0.029

Row | Sequence | PBM E-score of 8-mer
23 | TCTAAAAA | -0.117 ± 0.058
24 | ACCTTTTC | -0.0164 ± 0.083
25 | GTTTGACA | 0.332 ± 0.036
26 | CCCGCCGC | 0.0241 ± 0.029
27 | TGAAAGAA | -0.00098 ± 0.044
28 | AAGGGGAG | -0.0888 ± 0.0069
29 | CGGGTAGA | -0.172 ± 0.066
30 | CATCACCA | 0.165 ± 0.029
31 | ATTTGCGA | 0.203 ± 0.026
32 | CCTCCACG | 0.0268 ± 0.029
33 | ACCTCATG | 0.142 ± 0.057
34 | GCCGCAGC | -0.0981 ± 0.017
35 | GGAGAATA | -0.232 ± 0.0054
36 | CAGAAGCG | 0.078 ± 0.0059
37 | CGTGCGGC | 0.00261 ± 0.06
38 | GTTTTAAA | -0.0732 ± 0.023
39 | GCGGGTGA | 0.261 ± 0.03
40 | GTGTCCAA | 0.159 ± 0.0035
41 | GTAATTAC | 0.169 ± 0.048
42 | ACCGTAGC | -0.25 ± 0.047
43 | GATATTTA | -0.105 ± 0.06
44 | CGTCAACC | 0.135 ± 0.011

Row | Sequence | PBM E-score of 8-mer
45 | TAGTTGCA | -0.212 ± 0.018
46 | CAGGGAGG | -0.103 ± 0.054
47 | CCACGACA | 0.136 ± 0.05
48 | ACGCTGGA | 0.0588 ± 0.0036
49 | CTGTTATC | 0.227 ± 0.0068
50 | CCACTACG | -0.0765 ± 0.034
51 | GGTGGGCA | 0.13 ± 0.074
52 | AAACGTCA | -0.0667 ± 0.0055
53 | ATTCGGTC | -0.0788 ± 0.015
54 | GAGACAGA | -0.213 ± 0.017
55 | CAACGCGA | 0.173 ± 0.0078
56 | ACGGACGC | 0.104 ± 0.024
57 | ACCGCGCA | 0.059 ± 0.072
58 | GTTGGCCA | -0.0151 ± 0.029
59 | GAACGAGA | -0.0174 ± 0.044
60 | CCGGCGCG | 0.199 ± 0.077
61 | TATGTAAA | -0.133 ± 0.11
62 | ATCATCAG | -0.0155 ± 0.033
63 | AGTATCAA | -0.0427 ± 0.0021
64 | CCGCTTCG | 0.136 ± 0.028
65 | CGGTTGGA | -0.0027 ± 0.0015
66 | AACAAGCA | 0.0469 ± 0.013

Row | Sequence | PBM E-score of 8-mer
67 | ATTGCAGG | -0.171 ± 0.0061
68 | TTTACAAA | -0.12 ± 0.032
69 | AGATGGTG | 0.143 ± 0.0021
70 | ATTGAAAT | -0.18 ± 0.01
71 | ACTGAACA | -0.0879 ± 0.037
72 | GAGGATAA | 0.0223 ± 0.041
73 | TACACATA | 0.168 ± 0.022
74 | AGGTAGCG | 0.143 ± 0.04
75 | AGGGCTGA | -0.203 ± 0.058
76 | AGCAAGAG | -0.139 ± 0.041
77 | GCATATGC | 0.092 ± 0.059
78 | ACGCCGGC | 0.242 ± 0.0047
79 | AAGTAAAT | -0.021 ± 0.0083
80 | CTGCTTTC | -0.0876 ± 0.063
81 | ATGGACAC | 0.0868 ± 0.031
82 | AGGGCCGA | -0.121 ± 0.017
83 | CGGTAGCA | 0.276 ± 0.031
84 | ACGCGGCA | 0.0884 ± 0.039
85 | CAGGATGC | -0.121 ± 0.076
86 | AGCTGTGC | 0.214 ± 0.041
87 | AAGCATGC | -0.0566 ± 0.012
88 | GAAAAGAA | -0.0353 ± 0.017

Row | Sequence | PBM E-score of 8-mer
89 | ATTTTCCC | -0.0387 ± 0.042
90 | CGACTAAG | -0.197 ± 0.024
91 | GGCACACC | 0.314 ± 0.011
92 | GTATTTAA | -0.154 ± 0.091
93 | TCTACGAA | -0.121 ± 0.041
94 | TCTGCAGA | -0.293 ± 0.058
95 | ATTTGATA | 0.0532 ± 0.066
96 | AGCATACT | -0.0602 ± 0.0025
97 | AGATCTAG | 0.00186 ± 0.0095
98 | CCATACTA | -0.197 ± 0.077
99 | CTCGTACC | -0.123 ± 0.022
100 | GCCTCGAC | 0.0257 ± 0.077
101 | ACGTAAGG | 0.0139 ± 0.056
102 | ACAACCTG | 0.193 ± 0.021
103 | ATAGATAT | -0.135 ± 0.06
104 | ATACACCA | 0.0224 ± 0.046
105 | AGTGGGAG | -0.0084 ± 0.023
106 | AGTGTCGC | 0.412 ± 0.016
107 | CTACCGAC | -0.0475 ± 0.0037
108 | GCCCAGCC | -0.0449 ± 0.038
109 | AAAACGGT | -0.0952 ± 0.074
